# Experimental data reported in PubChem BioAssay AID504332 (National Center for Advancing Translational Sciences (NCATS), 2011).
# Among all 350,000 compounds or so, about 31,000 (8.9%) were called active. Inconclusive means that the source gave no clear call. Such entries were picked first, then a sample of the others. Calls come from the whole dose curve; as a rule, active = well fitted inhibition curve with a large enough effect; inconclusive = small, poorly fitted or top-dose-only effect; inactive = no such curve, though single readings can be large or run the other way. Where the call is inconclusive, the potency comes from a doubtful curve fit.
# Biological target: Histone-lysine N-methyltransferase EHMT2 (Homo sapiens) (UniProt Q96KQ7)
# UniProt Q96KQ7, sequence (Q96KQ7 whole entry, looked up): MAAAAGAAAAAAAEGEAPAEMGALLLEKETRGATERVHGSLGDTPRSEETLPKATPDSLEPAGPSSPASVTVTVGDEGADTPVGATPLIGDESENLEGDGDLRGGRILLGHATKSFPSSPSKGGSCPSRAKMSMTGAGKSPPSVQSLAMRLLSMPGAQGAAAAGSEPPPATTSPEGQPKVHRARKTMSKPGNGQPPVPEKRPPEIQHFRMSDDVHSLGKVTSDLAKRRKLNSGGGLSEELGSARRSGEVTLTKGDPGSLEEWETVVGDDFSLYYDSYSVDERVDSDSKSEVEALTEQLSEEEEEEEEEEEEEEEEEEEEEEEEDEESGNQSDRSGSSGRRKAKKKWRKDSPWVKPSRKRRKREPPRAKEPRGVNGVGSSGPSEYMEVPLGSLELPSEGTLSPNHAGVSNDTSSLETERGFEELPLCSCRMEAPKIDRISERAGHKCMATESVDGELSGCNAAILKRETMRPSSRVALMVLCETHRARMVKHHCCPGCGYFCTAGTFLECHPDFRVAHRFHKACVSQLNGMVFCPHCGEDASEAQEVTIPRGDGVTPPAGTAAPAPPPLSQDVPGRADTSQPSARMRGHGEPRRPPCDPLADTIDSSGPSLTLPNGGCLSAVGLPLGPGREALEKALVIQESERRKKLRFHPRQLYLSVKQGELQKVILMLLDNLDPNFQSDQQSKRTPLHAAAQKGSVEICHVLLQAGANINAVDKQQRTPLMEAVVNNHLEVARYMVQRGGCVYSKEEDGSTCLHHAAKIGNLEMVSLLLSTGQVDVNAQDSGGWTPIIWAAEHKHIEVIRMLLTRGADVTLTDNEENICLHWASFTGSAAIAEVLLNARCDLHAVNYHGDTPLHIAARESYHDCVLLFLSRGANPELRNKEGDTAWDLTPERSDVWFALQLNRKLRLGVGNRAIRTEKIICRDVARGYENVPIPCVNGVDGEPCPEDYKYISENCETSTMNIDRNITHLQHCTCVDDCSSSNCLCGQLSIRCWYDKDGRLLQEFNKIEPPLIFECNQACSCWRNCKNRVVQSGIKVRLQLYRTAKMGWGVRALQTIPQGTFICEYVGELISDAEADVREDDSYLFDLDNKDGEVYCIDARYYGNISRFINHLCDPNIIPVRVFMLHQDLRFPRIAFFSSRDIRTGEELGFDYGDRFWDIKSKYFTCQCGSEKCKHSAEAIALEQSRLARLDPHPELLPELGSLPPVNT
# Experiment: qHTS Assay for Inhibitors of Histone Lysine Methyltransferase G9a; note: nearly all actives have a fitted effect of over 75% in size
# Settings: G9a H3K9 monomethylation, AlphaScreen, 2 h; activity, negative = inhibition: at 59 µM (top of the series) unless noted
# Procedure, shortened: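 Readings reflect AlphaScreen signal from monomethyl-H3K9 antibody detection. HMT at 20 nM; substrate b-H3K9 500 nM; cofactor SAM 20 uM; 2 h RT reaction; compounds tested as titrations in qHTS with 15 min preincubation.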
# % is set by controls: 0 for no effect and ±100 for the full control effect; potency is the fitted concentration of half-maximal effect; tags give direction and shape of the fitted curve.
Compound,Potency,"activity, negative = inhibition"
Cc1ccccc1N1C(=O)C2ON(c3ccccc3)C(c3cccnc3)C2C1=O (configuration not stated),"inconclusive: 89.1 µM [inhibitor, single point]",–
CCOc1ccc(NC(=O)CN(C)c2nnnn2-c2ccccc2)cc1OCC,"inconclusive: 50.1 µM [inhibitor, partial curve]",–
CCOc1ccc(CCN2C(=O)C3C4CCC(O4)C3C2=O)cc1OCC (configuration not stated),–,inactive: -4.91% [at 12.7 µM]
O=C(O)[C@@H]1[C@H]2C[C@H]3c4[nH]c5ccccc5c4CCN3C[C@@H]2CC[C@@H]1O,"inconclusive: 28.2 µM [inhibitor, single point]",–
CC1=NN(C(=S)Nc2ccccc2)C(C)(C)C1,active: 31.6 µM,–
Fc1ccc(-c2nnc(SCc3cccnc3)o2)cc1,"inconclusive: 12.6 µM [inhibitor, partial curve]",–
CCC(C)NCCCOc1c(C)cc(C)cc1Br (configuration not stated),active: 8.91 µM,–
Cc1ccccc1-n1c(Cn2c(=O)sc3ccccc32)nnc1SCC(=O)N1CCOCC1,inactive,–
C[n+]1ccc(/C=C/c2ccc(Br)cc2)cc1,"inconclusive: 50.1 µM [inhibitor, partial curve, poor fit]",–
O=[N+]([O-])c1cc(-c2nnc(Nc3ccc(O)cc3)c3ccccc23)ccc1N1CCOCC1,active: 20 µM,–
CC(C)OC(=O)c1cccnc1SCC(=O)Nc1ccc(C(F)(F)F)cc1Cl,inactive,–
COc1ccc2c(c1)cc(C(=O)N[C@@H](Cc1ccccc1)C(=O)O)n2C,"inconclusive: 1.41 µM [inhibitor, partial curve, poor fit]",–
Cc1cc(C(=O)c2cccs2)c(N)s1,active: 39.8 µM,–
COc1ccc(C2C(C(=O)c3sc(C)nc3C)=C(O)C(=O)N2CCN2CCOCC2)cc1 (configuration not stated),"inconclusive: 25.1 µM [inhibitor, single point]",–
Cc1ccc(-n2c3c(cc(C(=O)Nc4cccc(Cl)c4)c2=O)C(=O)CC(C)(C)C3)cc1,inactive,–
COc1ccc(Cl)cc1NC(=O)C1CC(c2ccccc2O)=NO1 (configuration not stated),"inconclusive: 2.82 µM [inhibitor, full curve]",–
N#Cc1ccc(CSc2nnc3[nH]c(=O)cc(N)n23)cc1,active: 22.4 µM,–
c1ccc(-c2nn3c(-c4ccccc4)nnc3s2)cc1,"inconclusive: 89.1 µM [inhibitor, partial curve, poor fit]",–
CCN1CCN(C(=O)c2ccc3c(c2)N(Cc2ccccc2F)C(=O)c2ccccc2S3=O)CC1 (configuration not stated),"inconclusive: 22.4 µM [inhibitor, partial curve, poor fit]",–
CC(=O)N(C)C(c1ccc(N(C)C)cc1)c1nnnn1-c1c(C)cccc1C (configuration not stated),"inconclusive: 22.4 µM [inhibitor, single point]",–
Cc1cccc(-c2nc(S(=O)(=O)c3ccccc3)c(N3CCOCC3)o2)c1,"inconclusive: 79.4 µM [inhibitor, partial curve, poor fit]",–

Compound,Potency,"activity, negative = inhibition"
Cc1cc2c(cc3c(SCC(=O)Nc4cccc(Cl)c4C)nnc(C)n32)o1,"inconclusive: 28.2 µM [inhibitor, single point]",–
CCc1ccc(C(=O)NC(Cc2c[nH]c3ccccc23)C(=O)OCC(=O)c2ccc(Br)cc2)cc1 (configuration not stated),inactive,–
CCOC(=O)C1=C(C)N=c2s/c(=C\c3ccc(OCC(=O)O)cc3)c(=O)n2C1c1ccc(OC(C)C)cc1 (configuration not stated),"inconclusive: 28.2 µM [inhibitor, single point]",–
O=C(COC(=O)CSc1ccc(F)cc1)NC1CCCCCC1,"inconclusive: 3.55 µM [inhibitor, single point]",–
CNS(=O)(=O)c1cc(-c2nnc(Nc3cc(C)ccc3C)c3ccccc23)ccc1C,"inconclusive: 35.5 µM [inhibitor, partial curve, poor fit]",–
O=C(Nc1ccc2c(c1)CCC2)c1cccc(S(=O)(=O)Nc2ccccc2Cl)c1,"inconclusive: 25.1 µM [inhibitor, single point]",–
O=c1[nH][nH]c(C(F)(F)F)c1/C=N/N1CCOCC1,active: 39.8 µM,–
Cc1cccc(Nc2nnc(SC(C)C(=O)NC3CC3)s2)c1 (configuration not stated),"inconclusive: 31.6 µM [inhibitor, single point]",–
N#CC1(NC(=O)CN2CCc3ccccc3C2)CCCC1,"inconclusive: 79.4 µM [inhibitor, partial curve, poor fit]",–
Cc1ccc(-c2nnc(SCC(=O)NCc3ccccc3)nc2-c2ccc(C)cc2)cc1,"inconclusive: 28.2 µM [inhibitor, partial curve, poor fit]",–
Cn1c(=O)n(CCc2ccccc2)c(=O)c2c1nc1n2CCCN1Cc1ccccc1,"inconclusive: 70.8 µM [inhibitor, partial curve, poor fit]",–
CCN(CC)c1ccc(/C=C2/SC(=O)N(C(C)C)C2=O)o1,active: 7.08 µM,–
CC(Oc1ccccc1)C(=O)N=Nc1c(O)[nH]c2ccc([N+](=O)[O-])cc12 (configuration not stated),"inconclusive: 35.5 µM [inhibitor, partial curve]",–
Cc1onc(-c2ccccc2Cl)c1C(=O)Nc1nc2c(s1)CCCC2,"inconclusive: 22.4 µM [inhibitor, single point]",–
COc1ccc(CCC(C)NCc2ccc(Cl)c(Cl)c2)cc1 (configuration not stated),"inconclusive: 89.1 µM [inhibitor, single point]",–
COc1ccc(NC(=O)CN(C)C(=O)CCc2ccccc2)cc1,"inconclusive: 89.1 µM [inhibitor, single point]",–
COC(=O)c1c(OC)cc2c(c1C)Oc1c(Cl)c(O)c(Cl)c(C)c1C(=O)O2,–,inactive: -43.8% [at 2.33 µM]
CC(C)(c1ccccc1)c1ccc(OCc2ccc(C(=O)O)o2)cc1,"inconclusive: 79.4 µM [inhibitor, single point]",–
CCOc1ccc(CCNC(=O)c2c(C)oc3ncn(C)c(=O)c23)cc1,inactive,–
COc1ccc(CCNc2ccc(S(=O)(=O)N3CCCC3)cc2[N+](=O)[O-])cc1,"inconclusive: 7.94 µM [inhibitor, single point]",–
COc1ccc(CCNC(=O)CSc2nnc(CNC(=O)c3ccccc3F)o2)cc1OC,–,inconclusive: -55% [inhibitor]
